Experimental data taken from PubChem BioAssay AID894 (National Center for Advancing Translational Sciences (NCATS), 2007).
About 6,500 (4.3%) of roughly 150,000 compounds were called active. The inconclusive results got no clear call from the source; some entries with a clear call stand among them for comparison. Calls follow the shape of the dose curve; as a rule, active = well fitted inhibition curve with a large enough effect (not every such curve was filed as active); inconclusive = small, poorly fitted or top-dose-only effect, or another doubt; inactive = no such curve, though single readings can be large or run the other way. No potency is given beside an inconclusive call; the fits are too rough. Where a structure was tested more than once in an assay, its records may differ in their call.

target: 15-hydroxyprostaglandin dehydrogenase [NAD(+)] (Homo sapiens) (UniProt P15428); experiment: qHTS Assay for Inhibitors of HPGD (15-Hydroxyprostaglandin Dehydrogenase); details: purified HPGD, NADH fluorescence kinetic, PGE2 substrate; activity change, negative = inhibition: active compounds read low
Procedure, shortened: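 20 nM HPGD preincubated 15 min at room temperature with compound in 50 mM Tris-HCl pH 8, 0.01% Tween 20. Started with 1 mM NAD+ and 30 uM prostaglandin E2; NADH fluorescence (360/450 nm) read 5 times over 30-s intervals, last minus first.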
% is scaled to controls: 0 for no effect and ±100 for the full control effect; potency is read from the fitted curve at half-maximal effect; tags tell the direction and shape of the fitted curve.

UniProt P15428, sequence (P15428 whole entry, looked up): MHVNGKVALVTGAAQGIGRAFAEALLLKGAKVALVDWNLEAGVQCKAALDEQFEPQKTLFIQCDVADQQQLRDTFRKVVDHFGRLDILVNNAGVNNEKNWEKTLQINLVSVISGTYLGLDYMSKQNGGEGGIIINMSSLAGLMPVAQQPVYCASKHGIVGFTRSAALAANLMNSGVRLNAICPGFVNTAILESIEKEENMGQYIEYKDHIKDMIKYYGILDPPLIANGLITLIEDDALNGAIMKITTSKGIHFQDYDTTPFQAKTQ

**Q.** How did the Potency turn out when CCN(CC)C(=O)c1ccc2nc3ccccc3nc2c1 was run?
**A.** active: 0.891 µM

**Q.** Which Potency does the source give for CC(=O)N1[C@H](Cc2ccccc2)C=C[C@]1(C)C(=O)NCc1ccc(C)o1 here?
**A.** active: 22.4 µM

**Q.** Which Potency does the source give for Nc1ccc2[nH]cc(CCC(=O)O)c2c1 here?
**A.** inconclusive [inhibitor, full curve, poor fit]

**Q.** Which Potency does the source give for COC(=O)c1ccc(-c2cc(C(=O)O)c3cc4c(cc3n2)OCCO4)cc1 here?
**A.** inconclusive [inhibitor, partial curve]

**Q.** With COc1ccc(C(C)=O)cc1CSCCC(=O)O as the compound, how does the Potency read?
**A.** active: 28.2 µM

**Q.** O=C(NCc1ccc2c(c1)OCO2)c1ccc(S(=O)(=O)N2CCCCC2)cc1 was tested. Which Potency did it give?
**A.** inconclusive [inhibitor, single point]

**Q.** With COc1ccc(NC(=O)c2ccc(-c3ccc(-c4noc(C)n4)cc3C)cc2)cc1OCCN(C)C as the compound, how does the Potency read?
**A.** inconclusive [inhibitor, partial curve]

**Q.** How did the Potency turn out when CCOC(=O)c1ccc(NS(=O)(=O)c2cc(C)ccc2OC)cc1 was run?
**A.** inconclusive [inhibitor, partial curve, poor fit]

**Q.** With N#Cc1ccc(CN2CC[C@@]3(CCCN(C(=O)c4cccc(F)c4)C3)C2)cc1 as the compound, how does the Potency read?
**A.** active: 28.2 µM

**Q.** For O=c1c(O)c(-c2ccc(O)c(O)c2)oc2c(OC3OC(CO)C(O)C(O)C3O)c(O)cc(O)c12 (centres undefined), which Potency is on record?
**A.** active: 28.2 µM

**Q.** How did the Potency turn out when CCN1C(=O)S/C(=C/c2ccc(Sc3nc4ccccc4[nH]3)o2)C1=O was run?
**A.** active: 12.6 µM

**Q.** How did the activity change, negative = inhibition turn out when Cc1cccc(-n2ncc3c(N4CC(C)CC(C)C4)ncnc32)c1 (centres undefined) was run?
**A.** inactive: -29.8%

**Q.** Which Potency does the source give for O=C(Cn1c(=O)oc2ccccc21)N1CCN(c2ccc(N3CCOCC3)nn2)CC1 here?
**A.** inconclusive [inhibitor, partial curve]

**Q.** With COc1ccc(-c2cc(C(=O)N3CCN(c4ncccn4)CC3)c3ccccc3n2)c(OC)c1 as the compound, how does the Potency read?
**A.** inconclusive [inhibitor, partial curve]

**Q.** How did the Potency turn out when COc1ccc(/C=C2\SC(=NCc3ccccc3)N(Cc3ccccc3)C2=O)cc1OC was run?
**A.** inconclusive [inhibitor, partial curve]

**Q.** For COc1ccccc1/C=C/C(=O)N1CCOCC1, which Potency is on record?
**A.** inconclusive [inhibitor, single point]

**Q.** With O=C(Nc1ccc2oc(-c3cccc4ccccc34)nc2c1)c1ncn[nH]1 as the compound, how does the Potency read?
**A.** inconclusive [inhibitor, partial curve]

**Q.** With O=C(c1ccco1)N1CCN(c2nc3ccccc3n3nnnc23)CC1 as the compound, how does the activity change, negative = inhibition read?
**A.** inactive: -28.3%

**Q.** With CCC(C)NC(=O)CCC(=O)Nc1ccc2nc(N3CCOCC3)cc(C)c2c1 (centres undefined) as the compound, how does the Potency read?
**A.** inconclusive [inhibitor, partial curve]
